Laboratory results published in PubChem BioAssay AID485360 (National Center for Advancing Translational Sciences (NCATS), 2010).
Among all 230,000 compounds or so, about 1,500 (0.65%) were called active. The inconclusive results got no clear call from the source; some entries with a clear call stand among them for comparison. Calls come from the whole dose curve; as a rule, active = well fitted inhibition curve with a large enough effect; inconclusive = small, poorly fitted or top-dose-only effect; inactive = no such curve, though single readings can be large or run the other way. Where the call is inconclusive, the potency comes from a doubtful curve fit.

The compounds below were run against Lethal(3)malignant brain tumor-like protein 1 (Homo sapiens) (UniProt Q9Y468) (assay: qHTS Assay for the Inhibitors of L3MBTL1). Settings: AlphaScreen L3MBTL1–H3K9me1 peptide binding; activity, negative = inhibition: at 57.1 µM (top of the series).
Chain of UniProt Q9Y468 (Q9Y468 whole entry, looked up): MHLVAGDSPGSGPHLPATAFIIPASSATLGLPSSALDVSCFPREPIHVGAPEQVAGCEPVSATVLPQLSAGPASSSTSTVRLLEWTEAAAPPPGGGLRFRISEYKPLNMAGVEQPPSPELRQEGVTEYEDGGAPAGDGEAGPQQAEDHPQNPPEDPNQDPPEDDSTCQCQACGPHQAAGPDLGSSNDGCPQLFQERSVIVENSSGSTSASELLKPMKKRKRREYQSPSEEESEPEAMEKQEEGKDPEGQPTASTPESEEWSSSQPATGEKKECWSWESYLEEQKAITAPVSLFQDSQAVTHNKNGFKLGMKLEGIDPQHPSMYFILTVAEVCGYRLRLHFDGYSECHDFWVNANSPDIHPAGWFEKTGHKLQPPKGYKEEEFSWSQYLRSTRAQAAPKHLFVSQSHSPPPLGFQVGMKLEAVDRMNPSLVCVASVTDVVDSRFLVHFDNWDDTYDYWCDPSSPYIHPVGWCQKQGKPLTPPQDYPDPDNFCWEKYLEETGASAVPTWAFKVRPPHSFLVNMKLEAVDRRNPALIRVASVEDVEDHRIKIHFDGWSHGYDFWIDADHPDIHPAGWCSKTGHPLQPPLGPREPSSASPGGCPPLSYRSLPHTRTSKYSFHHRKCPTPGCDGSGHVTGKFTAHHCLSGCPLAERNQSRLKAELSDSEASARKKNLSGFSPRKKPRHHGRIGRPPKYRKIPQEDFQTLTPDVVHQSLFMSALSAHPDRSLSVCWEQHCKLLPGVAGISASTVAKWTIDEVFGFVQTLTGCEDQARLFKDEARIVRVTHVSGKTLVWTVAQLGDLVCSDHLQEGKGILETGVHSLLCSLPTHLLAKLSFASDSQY
Outline: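 Read-out is AlphaScreen signal from streptavidin donor and nickel chelate acceptor beads (10 ug/mL final each) bridging L3MBTL1 (50 nM) and biotinylated K9-monomethylated H3(1-15) peptide (75 nM), after 30 min compound exposure at room temperature.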
% is set by controls: 0 for no effect and ±100 for the full control effect; potency is the fitted concentration of half-maximal effect; tags give direction and shape of the fitted curve.
Note: nearly all actives have a fitted effect of over 60% in size.

Structure (SMILES)	Potency	activity, negative = inhibition
c1ccc(CCNc2ccccc2)cc1	inconclusive: 39.8 µM [inhibitor, single point]	–
COC(=O)c1cnc(Nc2cccc(C(F)(F)F)c2)c([N+](=O)[O-])c1	inconclusive: 2.82 µM [inhibitor, full curve, poor fit]	–
CCc1cc(-c2nc(N)ncc2-c2ccc(Br)cc2)c(O)cc1OC	inconclusive: 31.6 µM [inhibitor, single point]	–
O=C(/C=C/c1ccco1)Nc1cc(Cl)ccc1C(=O)O	active: 28.2 µM	–
COCCCNC(=O)/C(C#N)=c1\s/c(=C\c2ccccc2OC(F)F)c(=O)n1CCCOC	inconclusive: 8.91 µM [inhibitor, single point]	–
O=C(O)/C(=C/c1ccco1)NC(=O)c1ccc(Br)o1	inconclusive: 35.5 µM [inhibitor, single point]	–
O=c1[nH]nc(Cc2ccc(-c3ccc(Cl)cc3)o2)c2ccccc12	inconclusive: 5.01 µM [inhibitor, single point]	–
Cc1ccc(C)c(OCC(=O)OCC(=O)Nc2c(C)nn(-c3ccccc3)c2C)c1	–	inactive: 9.6%
CCOc1ncccc1C(=O)N1CCCSC1=Nc1ccc(C(C)=O)cc1	inconclusive: 0.1 µM [inhibitor, full curve]	–
CC1(C)Cc2c(sc3[nH]c(=S)[nH]c(=O)c23)CO1	–	inactive: 42.9%
COC(=O)/C(=C/c1ccco1)NC(=O)c1ccc(Br)o1	–	inactive: -8.05%
OC[C@@H](O)[C@@H](O)[C@H](O)[C@H](O)CO	inconclusive: 35.5 µM [inhibitor, single point]	–
COc1ccc(/C=C/C(=O)OCC(=O)NCc2ccco2)cc1OC	inconclusive: 39.8 µM [inhibitor, single point]	–
COc1cc(OC)c2c(c1O)OC(c1ccccc1)CC2=O (centres undefined)	inconclusive: 39.8 µM [inhibitor, single point]	–
O=[N+]([O-])c1cc(/C=N/O)ccc1SCc1ccccc1Cl	inconclusive: 39.8 µM [inhibitor, single point]	–
Cc1ccc(C(=O)Nc2nc(-c3ccccn3)cs2)s1	inconclusive: 31.6 µM [inhibitor, single point]	–
CCc1cccc(C)c1NC(=O)COC(=O)c1cc([N+](=O)[O-])ccc1N1CCOCC1	–	inactive: 2.3%
Oc1ccc2ccccc2c1N=Nc1nccs1	active: 3.98 µM	–
Cc1cc(C(=O)CSc2nnc(-c3ccco3)o2)c(C)n1C	inconclusive: 28.2 µM [inhibitor, single point]	–
CC(C)c1nc(SCC(=O)Nc2cccc(C(F)(F)F)c2)c2c(=O)n(C)c(=O)n(C)c2n1	inconclusive: 6.31 µM [inhibitor, single point]	–
O=C1CC(NNc2nc3ccccc3s2)C(=O)N1c1ccccc1 (centres undefined)	–	inactive: 2.84%
Cn1cccc1Cc1nnc(SCC(=O)Nc2ccc3c(c2)OCO3)n1-c1ccc(F)cc1	inconclusive: 28.2 µM [inhibitor, partial curve]	–
COc1ccccc1CCNC(=O)CCSc1nc(-c2ccco2)cc(C(F)(F)F)n1	–	inactive: 10.9%
CN(C)c1ccc(/C=N/NS(=O)(=O)c2ccc(Br)cc2)cc1	inconclusive: 14.1 µM [inhibitor, single point]	–
O=C1NCCC/C1=N/Nc1ccc(F)cc1	inconclusive: 44.7 µM [inhibitor, partial curve, poor fit]	–

Structure (SMILES)	Potency	activity, negative = inhibition
COc1ccc(NC(=O)COC(=O)c2ccccc2SCC(=O)N2CCCC2)cc1	–	inactive: 9.77%
O=C(N/N=C/c1c(Cl)nc2ccccn2c1=O)c1cccnc1	–	inactive: 15%
COc1ccc(N2CCN(Cc3nc(N)nc(Nc4ccccc4OC)n3)CC2)cc1	inconclusive: 17.8 µM [inhibitor, partial curve, poor fit]	–
C/C(=N/Nc1ccc(C(=O)O)cc1)c1ccc(O)c(O)c1O	active: 14.1 µM	–
COc1ccc(/C=N/NC(=S)SC)cc1OC	inconclusive: 2.24 µM [inhibitor, full curve]	–
COc1ccccc1CN(C)CC(=O)Nc1cccc(S(=O)(=O)N2CCCC2)c1	–	inactive: 1.68%
Cn1c(=O)oc2cc(S(=O)(=O)NCCc3ccccc3)ccc21	inconclusive: 0.708 µM [inhibitor, single point]	–
Nc1ccccc1C(=O)/C=C/c1ccc2c(c1)OCO2	inconclusive: 39.8 µM [inhibitor, single point]	–
CCOc1ccc2c(c1)-c1c(ssc1=S)C(C)(C)N2C(=O)CSC1=NCCS1	inconclusive: 28.2 µM [inhibitor, single point]	–
Cc1ccc(C(=O)Nc2ccc(S(=O)(=O)N3CCOCC3)cc2)cc1C	–	inconclusive: -84.6% [inhibitor]
Cc1noc(C)c1COc1ccccc1C(=O)N(C)CC(=O)Nc1ccc(Cl)c(Cl)c1	–	inactive: 1.66%
CCN(c1ccccc1)c1cc(C)nc2ncnn12	inconclusive: 3.55 µM [inhibitor, single point]	–
O=C(c1ccccc1F)N1CCN(c2ncccn2)CC1	inconclusive: 39.8 µM [inhibitor, single point]	–
COc1ccc(NC(=S)NCc2ccc3c(c2)cc(C)n3C)cc1	inconclusive: 39.8 µM [inhibitor, single point]	–
COc1cccc(/C=C/C(=O)OCC(=O)NCc2ccco2)c1	inconclusive: 25.1 µM [inhibitor, single point]	–
CC/C(=N\NC(N)=O)c1ccc(OC(F)F)cc1	inconclusive: 8.91 µM [inhibitor, partial curve]	–
Nn1c(SCc2c(F)cccc2F)nnc1-c1ccccn1	active: 20 µM	–
Cn1cccc1-c1cc(C(=O)N/N=C/C=C/c2ccccc2)[nH]n1	inconclusive: 28.2 µM [inhibitor, single point]	–
Cc1ccc(Nc2ccc(N)cc2S(=O)(=O)O)cc1	inconclusive: 28.2 µM [inhibitor, single point]	–
N=C1CCC(=N)c2c1c(O)c1ccccc1c2O	active: 7.08 µM	–
CCc1sc(NC(=O)COC)nc1-c1ccccc1	–	inactive: -1.49%
NC(=O)c1ccc(NC(=O)COC(=O)C2COc3ccccc3O2)cc1 (centres undefined)	–	inactive: 2.73%
CCCOC(=O)C1=C(C)N(C)C(=O)NC1c1cc2c(cc1[N+](=O)[O-])OCO2 (centres undefined)	inconclusive: 2.82 µM [inhibitor, partial curve, poor fit]	–
Cc1ccccc1N=Cc1cc2c(cc1O)OC(N)=C(C#N)C2c1ccccc1 (centres undefined)	–	inactive: 0.97%
CN(C)C(=S)Nc1ccc(N2CCOCC2)cc1	–	inactive: 5.37%

Structure (SMILES)	Potency	activity, negative = inhibition
O=C(CCCOc1ccccc1)Nc1ccc(S(=O)(=O)Nc2ccccn2)cc1	inconclusive: 3.98 µM [inhibitor, single point]	–
CCOC(=O)c1sc2nc(COC(=O)c3c(F)cccc3F)[nH]c(=O)c2c1C	inconclusive: 8.91 µM [inhibitor, full curve, poor fit]	–
CC(Cc1n[nH]c(=S)o1)c1ccccc1 (centres undefined)	–	inactive: 5.69%
Cn1c(CCNC(=O)c2ccco2)nc2cc(NC(=O)c3ccco3)ccc21	–	inactive: -2.06%
O=C1CCC/C(=N\NC(=O)c2ccc(CSc3cccc4cccnc34)cc2)C1	inconclusive: 39.8 µM [inhibitor, single point]	–
COC(=O)c1ccc(CSC2=NC[C@@H]3[C@@H]4C(=O)N(Cc5ccccc5)C(=O)[C@@H]4[C@](Cc4ccccc4)(C(=O)OC)N23)cc1	–	inactive: -0.71%
CN(CC(=O)Nc1ccccc1N1CCOCC1)CC(=O)Nc1ccc(F)c(F)c1F	inconclusive: 0.1 µM [inhibitor, full curve, poor fit]	–
Cc1cc(CNC(=O)CC2C(=O)NCCN2Cc2ccc(-c3ccccc3)cc2)nn1C (centres undefined)	–	inactive: -6.17%
CCNC(=O)NC(=O)CSc1cccc(C(F)(F)F)c1	–	inactive: 2.47%
Fc1ccc2nc(Nc3nc4cc5c(cc4s3)OCCO5)sc2c1	inconclusive: 6.31 µM [inhibitor, single point]	–
O=C(O)c1ccc(S(=O)(=O)N[C@@H](Cc2ccc(O)cc2)C(=O)O)cc1	inconclusive: 35.5 µM [inhibitor, single point]	–
COc1ccc(CCN2C(=O)/C(=C\c3ccco3)SC2=S)cc1OC	active: 17.8 µM	–
COc1ccccc1N(C(=O)c1snc(C(N)=O)c1N)C(C(=O)NC1CCCC1)c1ccco1 (centres undefined)	inconclusive: 5.01 µM [inhibitor, single point]	–
CCOC(=O)c1ccc(NC(=O)Cn2ncc(Cl)c(Cl)c2=O)cc1	inconclusive: 31.6 µM [inhibitor, single point]	–
C/C(CCC1CC(C)(C)OC1=O)=N\NC(N)=S (centres undefined)	–	inactive: 9.54%
O=C(Cn1nc(-c2ccccc2)c2ccccc2c1=O)NCC1CCCO1 (centres undefined)	–	inactive: 0.842%
CCOC(=O)CCCOC(=O)c1ccc(S(=O)(=O)N(C)C)cc1	inconclusive: 4.47 µM [inhibitor, single point]	–
COc1ccc(C(=O)/C=C/c2cn(CC(O)CN3CCOCC3)c3ccccc23)cc1 (centres undefined)	inconclusive: 0.708 µM [inhibitor, single point]	–
CCN(CC)c1ccc(NC(=O)COC(=O)Cc2ccsc2)cc1	inconclusive: 39.8 µM [inhibitor, single point]	–
CCOc1ccc(OCCC(=O)OCC(=O)Nc2cc(S(=O)(=O)N3CCOCC3)ccc2C)cc1	inconclusive: 20 µM [inhibitor, single point]	–
CCCN(CCC)S(=O)(=O)c1ccc(C(=O)Nc2nnc(CSC)o2)cc1	–	inactive: 4.73%
C=CCSc1nc2[nH]ncc2c(=O)[nH]1	–	inactive: -19.4%
N#CC1=C(SCC(=O)Nc2ccc(C(=O)O)cc2)NC(=O)CC1c1ccco1 (centres undefined)	inconclusive: 22.4 µM [inhibitor, single point]	–
C[C@]12c3[nH]c4ccc(Cl)cc4c3CCN1C(=O)[C@@H](CC(=O)NCCCn1ccnc1)C[C@@H]2C(=O)N1CCCCC1	–	inactive: -9.13%
